About 2,200 (0.71%) of roughly 310,000 compounds showed an effect of 50% or more. Effects have a minus sign here. This is one part of the list.
molecular target: human ether-à-go-go-related gene (hERG) potassium channel (human, UniProt Q12809); experiment: primary screen, population patch clamp on CHO cells stably expressing hERG
Sequence (Q12809 whole entry, looked up): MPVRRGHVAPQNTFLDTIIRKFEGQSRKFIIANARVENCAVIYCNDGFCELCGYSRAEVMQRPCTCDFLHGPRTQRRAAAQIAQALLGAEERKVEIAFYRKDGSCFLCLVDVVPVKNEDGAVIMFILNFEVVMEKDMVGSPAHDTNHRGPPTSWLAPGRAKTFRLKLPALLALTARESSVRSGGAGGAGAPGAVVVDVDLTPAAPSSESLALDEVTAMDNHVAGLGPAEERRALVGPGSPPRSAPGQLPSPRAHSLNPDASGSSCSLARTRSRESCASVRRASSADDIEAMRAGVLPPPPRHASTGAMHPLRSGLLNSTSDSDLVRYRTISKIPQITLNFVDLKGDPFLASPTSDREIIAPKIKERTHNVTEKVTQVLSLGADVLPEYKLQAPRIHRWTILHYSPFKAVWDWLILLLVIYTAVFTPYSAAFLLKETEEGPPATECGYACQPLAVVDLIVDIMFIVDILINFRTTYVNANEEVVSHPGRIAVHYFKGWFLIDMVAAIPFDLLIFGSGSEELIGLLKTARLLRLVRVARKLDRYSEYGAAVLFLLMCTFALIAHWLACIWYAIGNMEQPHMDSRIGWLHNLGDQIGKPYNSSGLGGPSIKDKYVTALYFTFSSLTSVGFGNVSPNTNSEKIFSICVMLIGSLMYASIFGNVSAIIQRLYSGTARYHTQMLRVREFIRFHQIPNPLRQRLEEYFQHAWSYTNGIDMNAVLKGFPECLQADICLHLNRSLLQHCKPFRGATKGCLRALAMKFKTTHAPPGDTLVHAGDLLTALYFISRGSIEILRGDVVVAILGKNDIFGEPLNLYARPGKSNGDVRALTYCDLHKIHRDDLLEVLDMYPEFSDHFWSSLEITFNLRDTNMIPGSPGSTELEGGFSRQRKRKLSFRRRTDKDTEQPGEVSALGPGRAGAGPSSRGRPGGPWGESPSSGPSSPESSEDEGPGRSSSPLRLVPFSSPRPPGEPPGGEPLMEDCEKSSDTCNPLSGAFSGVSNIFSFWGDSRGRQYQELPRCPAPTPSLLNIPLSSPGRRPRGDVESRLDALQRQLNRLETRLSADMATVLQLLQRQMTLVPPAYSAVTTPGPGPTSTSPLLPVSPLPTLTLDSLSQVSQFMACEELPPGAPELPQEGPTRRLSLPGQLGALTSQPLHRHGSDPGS

SMILES	hERG current change (%, negative = inhibition) at 1uM
CCOC(=O)C1(S(=O)(=O)c2ccc(Cl)cc2)CCN(Cc2ccc(C)cc2)CC1	12.6%
CCCCn1c(N)c(N(CCOC)C(=O)C2CCN(C(=O)c3ccc(Cl)cc3)CC2)c(=O)[nH]c1=O	5.05%
C=CCn1c(C)cc(C(=O)CSc2nnc(-c3cccc(S(=O)(=O)N(CC)CC)c3)o2)c1C	3%
CN(CC(=O)Nc1ccc2c(c1)OCCO2)S(=O)(=O)c1cccc2cccnc12	11.6%
O=C(CN(Cc1ccccc1)S(=O)(=O)c1ccccc1)N/N=C/c1ccccc1C(=O)O	10.6%
COCC1CCN(C(=O)C2CCN(c3nc(-c4ccccc4)nc4c3CCC4)CC2)C1 (stereo not drawn)	-30.6%
CCCOc1cc2c(C#N)c(N3CCCC3)nc(N)c2c(N)n1	15.8%
CC(C)NC(=O)c1ccc(OC2CSC2)cc1	-0.511%
Cc1ccc(NC(=O)Nc2cc(S(C)(=O)=O)ccc2Cl)cc1	4.51%
COc1ccc(CC(=O)Nc2ccc(N3CCCC3)c(C)c2)cc1	5.59%
O=C(OCC(=O)c1ccc[nH]1)C1=COCCO1	9.49%
CCC(CC)c1nnc(NC(=O)C2CC(=O)N(CCc3ccc(OC)c(OC)c3)C2)s1 (stereo not drawn)	14%
Cc1c(C(=O)OC2CCCC2)[nH]c2c1C(=O)CC(c1ccco1)C2 (stereo not drawn)	9.19%
CCc1cccc2c(C(=O)COC(=O)c3nccnc3N)c[nH]c12	10.6%
O=C(NCCO)c1cc2cc(Cl)cc(Cl)c2oc1=O	7.81%
C/C(=N\NC(=O)c1nn(C)cc1Br)c1cccc(NC(=O)c2ccncc2)c1	2.06%
CCCSc1nnc(Sc2nnnn2-c2ccccc2)s1	8.69%
CCCOC(=O)Nc1ccc(C(N)=O)cc1	6.35%
CC(C)(Oc1ccc(Cl)cc1)C(=O)NCc1ccco1	7.06%

SMILES	hERG current change (%, negative = inhibition) at 1uM
COc1cc(NC(=O)c2cc(-c3cccnc3)nc3ccc(C)cc23)c(OC)cc1Cl	4.34%
CCC(C)NC(=O)C1CCN(C(=O)N(C)C)CC1 (stereo not drawn)	10.2%
O=C(c1ccco1)N1CCN(C(=O)c2ccc(CS(=O)c3ccc(F)cc3)o2)CC1 (stereo not drawn)	27.6%
Cc1nc(S(=O)(=O)NC2CCCCC2)c(C#N)c(C)c1Cl	8.4%
COC(=O)CCCC(=O)N1CCCC(C(=O)c2ccccc2SC)C1 (stereo not drawn)	9.77%
Cc1ccc(NC(=O)CN(C)CC(=O)Nc2ccc(N3CCOCC3)cc2)c(C)c1	-7.52%
COC(=O)Cc1[nH]n(-c2nc3ccccc3s2)c(=O)c1C(C)=O	18%
CC1CN(C(=S)NC(=O)c2ccco2)CC(C)O1 (stereo not drawn)	14.1%
CC(=O)SC(C)CC(=O)Nc1ccccc1 (stereo not drawn)	9.16%
COc1ccc(N2CCN(C(CNC(=O)C(=O)NCCCn3ccnc3)c3cccnc3)CC2)cc1 (stereo not drawn)	-8.9%
CCOC(=O)C1(CCOc2ccccc2)CCN(C(=O)c2cncs2)CC1	-27.4%
Cc1nc(SCC(=O)Nc2ccccc2C(F)(F)F)c2c(=O)n(C)c(=O)n(C)c2n1	2.91%
Cc1cc(C(=O)CSc2n[nH]c(N)n2)c(C)n1-c1ccccc1	-6.71%
Clc1ccc2nc(N3CCCCC3)[nH]c2c1	-8.79%
CC(C)OC(=O)c1c2nc3ccccc3nc2n2c1[nH]c(=O)c1ccccc12	3.77%
O=c1cc(Nc2ccc3c(c2)OCCO3)[nH]c(=O)n1-c1ccc(Cl)cc1	2.19%
O=C(c1ccc(F)cc1)C1CCN(Cc2ccc(F)cc2)CC1	2.51%
CC(C)N1CCC(N2CCN(C/C=C/c3ccc(F)cc3)CC2CCO)CC1 (stereo not drawn)	9.87%
CCOc1ccc(NC(=O)CSc2nc3ccccc3nc2N2CCCC2)cc1	-19.7%

SMILES	hERG current change (%, negative = inhibition) at 1uM
Cc1ccc(-c2nnc(N(C)C(=O)c3cccnc3)s2)cc1	2.19%
CC(c1ccccc1)N1CCn2c(nc3cc(NC(=O)NC4CCCCC4)ccc32)C1 (stereo not drawn)	2.78%
COc1ccc(NC(=O)CC2Sc3ncnn3C2=O)cc1 (stereo not drawn)	15.5%
COc1ccc(N2CCN(C(=O)COC(=O)/C=C/c3ccc(C(F)(F)F)cc3)CC2)cc1	2.77%
C/C(=N\NC(=O)c1cc(-c2ccco2)nc2ccccc12)c1cccnc1	6.05%
c1cc(OCCCN2CCCCC2)ccc1CN1CCCCC1	15%
CC(=O)c1c(C)[nH]c(C(=O)OCc2nc3ccsc3c(=O)[nH]2)c1C	7.68%
CC1CCCN(S(=O)(=O)c2ccc(C(=O)Nc3nnc(-c4ccco4)o3)cc2)C1 (stereo not drawn)	-1.68%
O=c1c2oc3ccccc3c2ncn1Cc1ccc(F)cc1	8.79%
Cc1c(Cc2ccccc2)c(=O)oc2cc(OCc3nn[nH]n3)ccc12	-2.28%
O=C(O)C(Cc1c[nH]c2ccccc12)N1CCS(=O)(=O)CC1 (stereo not drawn)	13.1%
COc1ccc(C(=O)NNC(=O)CSc2nnc(-c3ccc(O)cc3)n2C)cc1	-2.9%
COc1ccc(CCNC(=O)c2cc(-c3ccco3)nc3ccccc23)cc1	13.7%
Cn1c(=O)n(C)c2cc(S(=O)(=O)NCc3ccco3)ccc21	9.92%
O.c1ccc(-c2cc(-c3nc4ccccc4[nH]3)c3ccccc3n2)cc1	10.5%
O=C(Nc1ccc(F)cc1)c1ccc(CSc2ccc(Cl)cc2)o1	14.4%
O=C(Nc1ccccc1)/C(=C/c1ccc(O)cc1)NC(=O)c1ccco1	9.16%
Cc1ccc(NC(=O)CSc2nnc(-c3ccccc3Br)o2)cc1C	-8.36%
O=C(Nc1ccccc1)c1cc(S(=O)(=O)N2CCCCC2)ccc1N1CCOCC1	12.6%
